About 5,300 (4.4%) of roughly 120,000 compounds were called active. This list was built around the results that the source calls inconclusive (neither active nor inactive); the mix of calls is not that of the screen. Calls follow the shape of the dose curve; as a rule, active = well fitted inhibition curve with a large enough effect; inconclusive = small, poorly fitted or top-dose-only effect; inactive = no such curve, though single readings can be large or run the other way. Potencies beside an inconclusive call are fits to weak or partial responses and may not hold up.
Experiment: qHTS Primary assay for Inhibitors of Plasmodium falciparum Dd2 growth in vitro; also: nearly all actives have a fitted effect of over 65% in size;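 as to activity, negative = inhibition: plate controls were DMSO vehicle for no effect and reference drug for full effect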
Settings: P. falciparum Dd2 growth, SYBR Green, 72 h; activity, negative = inhibition: at 28.9 µM (top of the series) unless noted; series mostly up to 28.9 µM
How it was run: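 Readout: SYBR Green fluorescence, 485 nm excitation, 535 nm emission, after ~16 h lysis at 37C. Before that, Dd2-infected red cells (2.5% hematocrit) grew 72 h with compound, 29 uM top final concentration.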
Potency is read from the fitted curve at half-maximal effect; tags tell the direction and shape of the fitted curve.

Compound | Potency | activity, negative = inhibition
O=C(CCCc1ccccc1)NCC(=O)N1CCCCCCNC(=O)CC1c1ccccc1 (stereo not given) | inconclusive: 7.94 µM [inhibitor, partial curve, poor fit] | –
Cc1ccccc1-c1cnc2[nH]cc(CC(=O)N3CCOCC3)c2c1 | inactive | –
Cn1nc2n(c1=O)CCC(NC(=O)c1c(F)cccc1Cl)CC2 (stereo not given) | inactive | –
CCCCC(=O)N1CCC2(CC1)SCC(=O)N2c1ccc(OC)cc1 | inactive | –
CC(C)CNC(=O)C(=O)Nc1c2c(nn1-c1ccc(Cl)cc1)CSC2 | inconclusive: 17.8 µM [inhibitor, single point] | –
O=C(NCc1ccncc1)c1ccc2c(c1)n(Cc1ccc(F)cc1)c(=O)c1ccnn12 | inconclusive: 0.891 µM [inhibitor, partial curve, poor fit] | –
COC[C@@H]1CN(C(=O)c2cc(C)oc2C)C[C@H]1c1nc(C2CC2)no1 | inactive | –
COCc1cc(C[C@@H]2CC[C@H](O)[C@@H](CNCc3ccc(Cl)cc3)O2)no1 | inconclusive: 2.51 µM [inhibitor, full curve] | –
COCCn1c(=O)n([C@H]2CCCN(S(=O)(=O)c3cn(C)cn3)C2)c2ncccc21 | inactive | –
CCOC(=O)c1ccc(NC(=O)c2sc3nc4n(c(=O)c3c2C)CCC4)cc1 | inconclusive: 12.6 µM [inhibitor, partial curve, poor fit] | –
COc1ccc(-c2nc(C3CC3)nc3c2CN(C(=O)c2ccccc2)CC3)cc1 | inconclusive: 5.62 µM [inhibitor, partial curve] | –
Cc1nn(C(=O)CCC(=O)N2CCC(Cc3nc(C4CCOCC4)no3)CC2)c2ccccc12 | inconclusive: 2.24 µM [inhibitor, partial curve] | –
COc1cc(Cl)c(C)cc1NC(=O)CCn1cnc2onc(-c3ccc(F)cc3)c2c1=O | inconclusive: 17.8 µM [inhibitor, single point] | –
CC(CNC(=O)Cn1c(-c2cccs2)cc2cc(Cl)ccc21)c1ccccc1 (stereo not given) | inconclusive: 17.8 µM [inhibitor, single point] | –
CCOC(=O)c1ccc(N2C(=O)c3[nH]nc(-c4ccccc4)c3C2c2ccc(C(C)C)cc2)cc1 (stereo not given) | active: 7.94 µM | –
COc1ccc2c(CNCCc3ccco3)c(C(=O)O)n(Cc3ccc(F)cc3)c2c1 | inconclusive: 17.8 µM [inhibitor, single point] | –
O=C(NC[C@H]1C[C@@H]2CCN1C[C@@H]2CN1CCN(c2ccc(F)cc2)CC1)Nc1ccsc1 | inconclusive: 12.6 µM [inhibitor, single point] | –
Cc1cccc(C(=O)N2CCC3(CC2)OCC(C(=O)N2CCCC2)N3C(=O)c2cccc(C)c2)c1 (stereo not given) | inconclusive: 10 µM [inhibitor, single point] | –
Cc1ccccc1N1CCN(C(=O)c2cc3cn(C4CC4)cc3s2)CC1 | inactive | –
COc1cccc(NC(=O)c2oc3ccccc3c2NC(=O)c2ccc(OC(C)C)cc2)c1 | inconclusive: 17.8 µM [inhibitor, single point] | –
CC1(C)[C@H](Cc2cc(CC3CCCCC3)on2)C[C@@H]1NC(=O)C1CCC1 | active: 11.2 µM | –
O=C(NCc1ccccc1F)c1ccc2c(c1)CNCCO2 | inactive | –

Compound | Potency | activity, negative = inhibition
Cc1cnc(C2CCOCC2)n1C1CCCN(C(=O)CCc2c[nH]c3ccccc23)C1 (stereo not given) | inconclusive: 5.01 µM [inhibitor, single point] | –
Cn1nccc1-c1ncc2c(n1)OCCN(Cc1ccc(F)cc1F)C2=O | inactive | –
Cc1ccc2c(CC(=O)Nc3c(C(=O)c4ccc(F)cc4)oc4ccccc34)coc2c1C | – | inconclusive: -60.2% [inhibitor] [at 5.79 µM]
CC(C)c1ccc(NC(=O)C(Cc2ccccc2)n2cccc2)cc1 (stereo not given) | inactive | –
Cn1cccc1C(=O)N1CCCN(Cc2ccncc2)C(c2ccccc2)CC(=O)NCC1 (stereo not given) | active: 2.51 µM | –
Cc1ccc(C)c(S(=O)(=O)c2cn(Cc3ccccc3)c3cc(N4CCCC4)c(F)cc3c2=O)c1 | active: 10 µM | –
O=C1Nc2ccccc2CC12CCN2Cc1ccccn1 (stereo not given) | inconclusive: 1.12 µM [inhibitor, full curve, poor fit] | –
CC(=O)Nc1ccc(CN(C)Cc2ccccc2C(F)(F)F)cc1 | inconclusive: 2.51 µM [inhibitor, full curve, poor fit] | –
CC1=C(c2ccc(F)cc2)S(=O)(=O)NC1=NCc1ccccc1Cl | inconclusive: 8.91 µM [inhibitor, partial curve] | –
CCc1cccc(-n2nnnc2N2CCN(C(=O)Cc3ccc(C)c(F)c3)CC2)c1 | – | inconclusive: -79.9% [inhibitor]
Cc1cc(-c2cccc(COc3ccc4c(cnn4CC[S+](C)(=O)[O-])c3)c2)ccn1 | inconclusive: 15.8 µM [inhibitor, single point] | –
Cc1cc(C(=O)NCC2(COc3ccc(C(F)(F)F)cn3)C[C@@H](O)[C@@H](O)C2)no1 (stereo not given in full) | inactive | –
Cc1ccc(NC(=O)C2CCN(c3cc(C(F)(F)F)ncn3)CC2)cc1F | inconclusive: 7.08 µM [inhibitor, partial curve, poor fit] | –
C=CCn1cc(CN(Cc2ccc(SC)cc2)C2CC2)c(C)n1 | inconclusive: 10 µM [inhibitor, single point] | –
Cc1ccc2c(c1)c1c(c(=O)n(-c3ccccc3C)c(=O)n1Cc1cccc(F)c1)n2C | inconclusive: 11.2 µM [inhibitor, single point] | –
CCOc1ccc(-c2cc3c(=O)n(CCNC(=O)c4ccc(OC)cc4)ccn3n2)cc1 | inactive | –
Cc1ccc(CSc2nc3cccnc3n2Cc2ccc(C(=O)NCc3cccs3)cc2)cc1 | inconclusive: 17.8 µM [inhibitor, single point] | –
COC(=O)C1=C(C)N=C2SC=C(CC(=O)N3CCCC(C(N)=O)C3)N2C1c1cccc(Cl)c1 (stereo not given) | inconclusive: 2 µM [inhibitor, partial curve, poor fit] | –
O=C(c1cc2c(s1)CCC(C(=O)N1CCN(C3CCCCC3)CC1)C2)N1CCCCC1 (stereo not given) | inconclusive: 1.41 µM [inhibitor, full curve] | –
Cc1ccc(Nc2nc(C(N)=O)c(NC(=O)c3ccccc3Br)s2)cc1 | active: 10 µM | –
COc1ccc(OC)c(-c2cc(Cl)c3c(c2)CC(CNC(=O)c2c(F)cccc2F)O3)c1 (stereo not given) | inactive | –
O=C(c1ccc(F)cc1)N1CC2CC(C1)[C@H]1CCCC(=O)N1C2 (stereo not given in full) | inactive | –

Compound | Potency | activity, negative = inhibition
Cc1cc(Oc2nc3ccccn3c(=O)c2/C=C(\C#N)c2nc3ccccc3s2)ccc1Cl | inactive | –
Cc1ncc2c(n1)C[C@@H]1CC[C@H]2N1C(=O)CCC1CCCC1 | inactive | –
CN1C[C@@H](NS(=O)(=O)c2ccccc2)C[C@H]1c1nc(-c2cnccn2)no1 | inactive | –
CN(C)c1cccc(-c2cnc(Nc3cnccn3)c3c2CCO3)c1 | inconclusive: 17.8 µM [inhibitor, single point] | –
CC1(C(=O)NC2CCN(Cc3ccccc3)CC2)CCCCC(=O)N1 (stereo not given) | inconclusive: 17.8 µM [inhibitor, single point] | –
CN1CCCN(S(=O)(=O)c2ccc3c(c2)OCCO3)c2ccccc21 | inactive | –
COc1ccc(N2CCOC3CCN(CCCc4ccccc4)CC3C2=O)cc1 (stereo not given) | inconclusive: 22.4 µM [inhibitor, single point] | –
CCN1CCN(C(=O)c2ccc3c(c2)N(Cc2ccc(F)cc2)C(=O)c2ccccc2S3(=O)=O)CC1 | inconclusive: 3.98 µM [inhibitor, partial curve, poor fit] | –
Cc1cc(=O)[nH]c(NCCNC(=O)c2cccc(CCC(C)(C)O)c2)n1 | inactive | –
Cc1ccccc1-c1cc(C(=O)NCCN2CCNC2=O)c2c(c1)N(C)CCO2 | inconclusive: 2.24 µM [inhibitor, full curve, poor fit] | –
Cc1cc(C(=O)N2CC(Oc3ccc(-c4nc(-c5ccccc5)no4)cc3)C2)nn1C | inconclusive: 0.251 µM [inhibitor, partial curve, poor fit] | –
COc1ccc(CN2Cc3[nH]cnc3C[C@H]2C(=O)N2CCC(Cc3ccccc3)CC2)cc1 | inconclusive: 2 µM [inhibitor, partial curve, poor fit] | –
Cc1nn2c(c1-c1ccccc1Oc1ccccc1)N(Cc1ccccc1O)CCC2 | active: 0.562 µM | –
CC(C)Oc1ccc(CN2CCC(CO)(Cc3ccccc3Cl)CC2)cc1CO | inconclusive: 11.2 µM [inhibitor, single point] | –
CC(C)(Oc1nn(CCOc2ccccc2)c2ccccc12)C(=O)NCc1cnccn1 | inconclusive: 0.562 µM [inhibitor, full curve] | –
Cc1c(NC(=O)c2ccc(Cl)cc2)cc(C(C)C)c(O)c1S(=O)(=O)c1ccccc1 | inconclusive: 17.8 µM [inhibitor, single point] | –
CCc1ccc(NC(=O)c2ccc3c(O)c(S(=O)(=O)c4ccccc4)c(=O)[nH]c3c2)cc1 | inconclusive: 11.2 µM [inhibitor, single point] | –
O=C(NC1CCN(c2cc(-c3ccc(Cl)cc3)[nH]n2)C1)c1ccc(Br)cc1 (stereo not given) | inconclusive: 17.8 µM [inhibitor, single point] | –
N#Cc1ccc(OCC2CN(Cc3c[nH]c4ccccc34)C(=O)c3c(ccnc3-c3ccc(OCC(=O)O)cc3)O2)cc1 (stereo not given) | inactive | –
Cc1cc(Cl)ccc1S(=O)(=O)N1CC(c2noc(-c3cccnc3)n2)C1 | inconclusive: 20 µM [inhibitor, single point] | –
Cc1cc(C)cc(-c2ccc(CN3C4CCC3CN(C(=O)c3ccncc3)C4)cc2)c1 | inconclusive: 17.8 µM [inhibitor, single point] | –

From PubChem BioAssay AID1347417 (National Center for Advancing Translational Sciences (NCATS), 2020)
